Read-outs that look alike come from different tables or passages of the source.
Test system: recombinant retrovirus producer cells Ψ CRIP/DOL
Conditions: 24 hours

O=C1C=CC(O)C1O (stereo not shown) [cyclopentenone, 4,5-dihydroxy-2-cyclopenten-1-one]
titer of the virus solution (0.1 μM): 8.3×10^4 cfu/ml | titer of the virus solution (0.5 μM): 6.4×10^4 cfu/ml | titer of the virus solution (1.0 μM): 6.1×10^4 cfu/ml | titer of the virus solution (2.0 μM): 3.8×10^4 cfu/ml | titer of the virus solution (5.0 μM): 5.6×10^4 cfu/ml | titer of the virus solution (10 μM): 5.1×10^4 cfu/ml | titer of the virus solution (20 μM): 4.1×10^4 cfu/ml
